# Measured values as given in patent US20180326010A1 (Hoffmann-La Roche, published 2018).
# Target: T1, human PD-1 (Programmed cell death protein 1) (human, UniProt Q15116 25-288)
# T1 construct: also called hPD-1; CD279
# Assay: competitive binding assay by flow cytometry with AF647-labelled antibody on co-cultured Tconv and Treg after 5 days of CD3/CD28 stimulation; frequency bound on Tconv minus frequency bound on Treg
# Protocol: The binding properties of PD1-IL2v to activated conventional and regulatory T cells were assessed in a competitive binding assay. CD4⁺ CD25⁺ CD127^dim Regulatory T cells (Treg) were isolated with the two-step Regulatory T cell Isolation Kit (Miltenyi, #130-094-775). In parallel the CD4⁺ CD25⁻ conventional T cells (Tconv) were isolated by collecting the negative fraction of a CD25 positive selection (Miltenyi, #130-092-983) followed by a CD4⁺ enrichment (Miltenyi, #130-045-101). The Tconv were labelled with CFSE (eBioscience, #65-0850-84) and the Treg were labelled with Cell Trace Violet (ThermoFisher scientific, C34557) to track the proliferation of both populations. Tconv and Treg were together seeded into a culture plate that were coated overnight at 4° C. with 1 μg/ml CD3 (clone OKT3, #317315, BioLegend). CD28 was added in solution at a concentration of 1 μg/ml CD28 (clone CD28.2, #302923, BioLegend). After 5 days of stimulation a binding assay was conducted with PD1 (0376) and PD1-IL2v (0590), which were both labelled in-house with AF647.
# T1 sequence (Q15116 25-288 limits assumed): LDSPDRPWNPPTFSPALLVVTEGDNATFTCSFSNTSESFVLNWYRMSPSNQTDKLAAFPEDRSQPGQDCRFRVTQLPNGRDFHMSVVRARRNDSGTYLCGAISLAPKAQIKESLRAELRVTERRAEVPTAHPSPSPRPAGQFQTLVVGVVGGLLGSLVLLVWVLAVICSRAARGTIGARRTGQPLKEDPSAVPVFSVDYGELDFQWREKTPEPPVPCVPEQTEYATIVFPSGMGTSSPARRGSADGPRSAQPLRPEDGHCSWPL
binder,measurement,value
"human PD1-IL-2v fusion protein (other, Immunoconjugate: IgG1 anti-human PD-1 antibody with one mutant IL-2 fused to the C-terminus of the knob heavy chain; also called PD1-IL2v (0590); PD1-IL2v bispecific antibody) heavy 1: EVQLLESGGGLVQPGGSLRLSCAASGFSFSSYTMSWVRQAPGKGLEWVATISGGGRDIYYPDSVKGRFTISRDNSKNTLYLQMNSLRAEDTAVYYCVLLTGRVYFALDSWGQGTLVTVSSASTKGPSVFPLAPSSKSTSGGTAALGCLVKDYFPEPVTVSWNSGALTSGVHTFPAVLQSSGLYSLSSVVTVPSSSLGTQTYICNVNHKPSNTKVDKKV[… human IgG1 Fc with changes …]GGGGSGGGGSGGGGSAPASSSTKKTQLQLEHLLLDLQMILNGINNYKNPKLTRMLTAKFAMPKKATELKHLQCLEEELKPLEEVLNGAQSKNFHLRPRDLISNINVIVLELKGSETTFMCEYADETATIVEFLNRWITFAQSIISTLT heavy 2: EVQLLESGGGLVQPGGSLRLSCAASGFSFSSYTMSWVRQAPGKGLEWVATISGGGRDIYYPDSVKGRFTISRDNSKNTLYLQMNSLRAEDTAVYYCVLLTGRVYFALDSWGQGTLVTVSSASTKGPSVFPLAPSSKSTSGGTAALGCLVKDYFPEPVTVSWNSGALTSGVHTFPAVLQSSGLYSLSSVVTVPSSSLGTQTYICNVNHKPSNTKVDKKVEPKSCDKTHTCPPCPAPEAAGGPSVFLFPPKPKDTLMISRTPEVTCVVVDVSHEDPEVKFNWYVDGVEVHNAKTKPREEQYNSTYRVVSVLTVLHQDWLNGKEYKCKVSNKALGAPIEKTISKAKGQPREPQVCTLPPSRDELTKNQVSLSCAVKGFYPSDIAVEWESNGQPENNYKTTPPVLDSDGSFFLVSKLTVDKSRWQQGNVFSCSVMHEALHNRFTQKSLSLSP light: DIVMTQSPDSLAVSLGERATINCKASESVDTSDNSFIHWYQQKPGQSPKLLIYRSSTLESGVPDRFSGSGSGTDFTLTISSLQAEDVAVYYCQQNYDVPWTFGQGTKVEIKRTVAAPSVFIFPPSDEQLKSGTASVVCLLNNFYPREAKVQWKVDNALQSGNSQESVTEQDSKDSTYSLSSTLTLSKADYEKHKVYACEVTHQGLSSPVTKSFNRGEC",binding result,binds
